From PubChem BioAssay AID602293 (National Center for Advancing Translational Sciences (NCATS), 2012)
Among all 1,300 compounds or so, about 30 (2%) were called active. Inconclusive results (about 10%) are left out. Calls follow the shape of the dose curve; as a rule, active = well fitted inhibition curve with a large enough effect; inconclusive = small, poorly fitted or top-dose-only effect; inactive = flat fitted curve, though single readings scatter. The list shows a part of the results.

experiment: qHTS for antagonists of the Thyroid Stimulation Hormone Receptor: Hit Validation in HTRF Activity in a Luteinizing Hormone Receptor Cell Line; conditions: LHR-expressing cell line, cAMP HTRF, antagonist mode; series mostly up to 58 µM; activity change, negative = inhibition: at the top concentration
Description: The thyroid-stimulating hormone receptor (TSHR) is a member of the 7 trans-membrane-spanning receptor (7TMR) family of cell surface receptors. TSHR-mediated hyperthyroidism is important in thyroid pathology. The development of small molecule antagonists of TSHR may lead to therapeutic approaches for TSHR-mediated hyperthyroidism caused by constitutively activating mutations or stimulating auto-antibodies associated with Graves' disease. Graves' disease is the leading cause of hyperthyroidism and is caused by autoantibodies that stimulate TSHR (TsAbs) causing thyroid growth and unregulated overproduction of thyroid hormones and existing treatments have liabilities (agranulocytosis). In addition, TSHRs are known to be expressed in multiple extrathyroidal tissues including bone, brain, kidney, testis, fat and cells of the immune system but the role of the TSHR in these tissues is not clear. Therefore, TSHR antagonists/inverse agonists could be used as probes of extrathyroidal TSHR function. Finally, TSHR inverse agonists, which are a subclass of antagonists that inhibit agonist-independent (or basal or constitutive) TSHR signaling, could be used to inhibit TSH-independent signaling in patients with recurrent or metastatic thyroid cancer who are receiving thyroid hormone to suppress TSH.
In collaboration between scientist from the NCGC and the NIDDK, a miniaturized HTRF high-throughput screen was developed. It's a cell based assay, where an anti cAMP antibody contains a fluorescent cryptate tag (excitation 337 nm; emission 620 nm) and the acceptor is cAMP-d2 (excitation 620 nm; emission 665 nm). When antibody and cAMP-d2 interact and are excited by a 337 nm light, a FRET occurs resulting in emission at 665 nm. The assay is competition between cAMP-d2 and cAMP (from the cell lysate). The homogeneous protocol allows for one step dispense after stimulation that is automation friendly. In order to confirm specificity of the compounds to the TSHR, a confirmatory assay was conducted on a similar family member, the Luteinizing Hormone (LH) receptor, transfected into a HEK 293 cell line, using an orthogonal detection technology to measure cAMP stimulation: antibody-based Homogeneous Time Resolved Fluorescence (HTRF).
NIH Chemical Genomics Center [NCGC]
NIH Molecular Libraries Probe Centers Network [MLPCN]
Assay Provider: Marvin Gershengorn, NIDDK
Homogeneous Time Resolved Fluorescence (HTRF) cAMP Assay. HEK 293 cells stably transfected with a vector containing the LH receptor and maintained under hygromycin selection were obtained from the laboratory of Dr. Marvin Gershengorn. Compounds were assayed using a HTRF cAMP detection kit (Cisbio) on the LH receptor transfected cell line. Briefly, 750 cells were plated in 2.5 ul/well of complete media (DMEM containing 10 % FCS, and 100 uM RO 20-1724) in 1536 well solid bottom white plates and 23 nl/well compound in DMSO solution or controls was added. Following 30 minute incubation at room temperature, 2.5 ul/well of labeled d2 cAMP and 2.5 ul/well of anti-cAMP antibody (both diluted 1:20 in lysis buffer) were added to each well using a flying reagent dispenser (Aurora Discovery, San Diego) . Plates were measured using the Envision plate reader (PerkinElmer, Boston, MA) with excitation at 330 nm and emissions of 615 nm and 660 nm.
% is scaled to controls: 0 for no effect and ±100 for the full control effect; potency is read from the fitted curve at half-maximal effect.

| Compound | activity change, negative = inhibition | Potency |
| --- | --- | --- |
| Cc1ccc(C(=O)NCCNc2ncc(C(F)(F)F)cc2Cl)cc1[N+](=O)[O-] | inactive: 0.346% |  |
| COC(=O)c1ccc(CN2C(=O)NC(Cc3c[nH]c4ccccc34)C2=O)cc1 (centres undefined) | inactive: 0.496% |  |
| COc1ccc(CC(=O)Nc2cccc(-c3nnc(-c4cccc(C)c4)o3)c2)cc1OC |  | active: 21.3 µM |
| CCC1Sc2ccc(S(=O)(=O)CCC(=O)Nc3ccccc3Cl)cc2NC1=O (centres undefined) | inactive: 0.151% |  |
| O=C(OCCN1C(=O)c2cccc3c(N4CCOCC4)ccc(c23)C1=O)c1cccc(Cl)c1 | inactive: -6.52% |  |
| COc1cccc(OCC(O)CN2CC(C)CC(C)C2)c1 (centres undefined) | inactive: 0.609% |  |
| Cn1c(N)c(Sc2ccccc2[N+](=O)[O-])c(=O)n(C)c1=O | inactive: -0.209% |  |
| COc1ccc(-c2c(C(F)(F)F)[nH]n3c(=O)cc(-c4ccccc4)nc23)cc1 | inactive: -3.49% |  |
| CCc1ccc(-c2nc(SCC(=O)NC3CCCC3)n[nH]2)cc1 | inactive: 0.442% |  |
| N#Cc1ccc(CN2CCN(C(=O)c3ccc(S(=O)(=O)N4CCCCCC4)cc3)CC2)cc1 | inactive: -4.02% |  |
| CCCCc1c(C)nc2nc(SCc3ccc(Cl)cc3)[nH]n2c1=O | inactive: 1.33% |  |
| CCSc1nsc(NC(=O)Nc2cccc(OC)c2)n1 | inactive: 1.44% |  |
| Cc1ccc(CN2CCc3c(OCc4ccc(F)cc4)cccc3C2=O)cc1 | inactive: -5.07% |  |
| CCN(C(=O)CN1C(=O)COc2ccc(S(=O)(=O)N3CCOCC3)cc21)c1ccc(OC)cc1 | inactive: 2.71% |  |
| C=C(C)C1CCC(C)=C1COC(=O)Nc1ccccc1 (centres undefined) | inactive: -3.2% |  |
| Cc1ccc(CCNC(=O)C2CC(c3cc(C(F)(F)F)cc(C(F)(F)F)c3)=NO2)cc1 (centres undefined) | inactive: -1.6% |  |
| O=C(c1ccc2c(c1)OCO2)N1CCN(S(=O)(=O)c2ccc(Cl)cc2)CC1 | inactive: 3.33% |  |
| O=C(NCCc1ccccc1)c1cccnc1N1CCCCCC1 | inactive: -0.194% |  |
| Cc1cc2oc(=O)cc(CSc3nnc(-c4cccs4)o3)c2cc1C(C)C | inactive: -1.67% |  |
| Cc1cccc(OCc2nnc(SCC(=O)N3c4ccccc4CCc4ccccc43)o2)c1 | inactive: -0.426% |  |
| CC1=C(C(=O)OC(C)(C)C)C(c2ccc3ccccc3c2)NC(=O)N1C (centres undefined) | inactive: 0.935% |  |
| CC(=O)c1cccc(NC(=O)CCCSc2ccccc2)c1 | inactive: 0.942% |  |
| Oc1ccc(N=Nc2nccs2)c(O)c1 | inactive: 1.22% |  |
| CC1SCC(=NOCc2ccccc2)CS1 (centres undefined) | inactive: 2.24% |  |
| CS(=O)(=O)c1ccc(C(=O)OCC(=O)NCc2cccs2)cc1[N+](=O)[O-] | inactive: -2.45% |  |
| COc1cccc(-c2cc(C(=O)Nc3ccn(Cc4ccc(C)cc4)n3)no2)c1 | inactive: -4.1% |  |
| CCNC(=O)c1ccccc1NC(=O)C1CC(=O)N(C(C)C)C1 (centres undefined) | inactive: 1.12% |  |
| Cc1ccc(N2CCN(S(=O)(=O)c3ccc(F)cc3)CC2)c(C)c1 | inactive: 0.673% |  |
| Cc1nn(Cc2ccc(Cl)cc2)c(C)c1NC(=O)c1noc2c1CCc1ccccc1-2 | inactive: -4.12% |  |
